The whole screen tested about 52,000 compounds, of which about 1,700 (3.3%) were called active. Rule as the data show it: active = survival mostly below about 52% (no sharp cut-off); inactive = mostly above about 56%. Some of the results follow.

This assay has as its system Wild type. Put plainly: growth inhibition of S. aureus wild type versus tarO mutant, primary screen, teichoic acid synthesis inhibitors, RN4220, OD600 (AID 463173). Particulars: S. aureus RN4220 wild type/DeltatarO growth, OD600, 18 h, stronger effect = lower value, screened at 18.75 µg/mL (by protocol).
As to `Cc1cc(C)c(NC(=O)CCc2c(C)nc3c(c(C)nn3C(C)(C)C)c2C)c(C)c1`, the survival was inactive: 72%.
The figure for `CCOC(=O)c1ccc(NC(=O)CCc2c(C)nc3nc[nH]n3c2=O)cc1` is inactive: 89%; for `O=C(Oc1ccc2c(c1)OCO2)c1cccc(S(=O)(=O)N2CCCC2)c1` it is inactive: 105%; for `COc1ccc(N2CCN(C3=NS(=O)(=O)C(c4cccc(Br)c4)=C3C)CC2)cc1` it is inactive: 89%.
As for `COc1ccc(C2=NN(CC(=O)NCCCN(C)c3ccccc3)C(=O)CC2)cc1`, the survival was inactive: 135%.
The figure for `COC(=O)c1cc2sc(C)cc2n1Cc1ccc(Br)cc1F` is inactive: 76%; for `COc1ccc(NC(=O)c2nc3nc(C)cc(C(F)F)n3n2)c(C)c1` it is inactive: 83%.
The figure for `COCCNC(=O)C(=O)NCC(c1cccnc1)N1CCN(c2ccccc2F)CC1` (stereo not drawn) is inactive: 87%; for `Cc1ccc2oc3c(c(=O)c2c1)C(c1ccc(F)cc1)N(c1nc(C)c(C)s1)C3=O` (stereo not drawn) it is inactive: 138%; for `COc1ccc(C2CC(=O)Nc3c2c(=O)[nH]c2nc4ccccc4n32)cc1OC` (stereo not drawn) it is inactive: 171%.
Next, `COc1ccccc1Nc1nc2ccc(Cl)cc2nc1-n1nc(C)cc1C`: inactive: 138%; `CCOC(=O)c1cccc(NC(=O)C2CCN(S(=O)(=O)c3cn(C)cn3)CC2)c1`: inactive: 75%.
For `Cc1ccc(C)c(NS(=O)(=O)c2cc3c(cc2Cl)NC(=O)CO3)c1`, the survival is inactive: 76%.
The figure for `CCOC(=O)c1ccc(NC(=O)CC2C(=O)N(c3ccc(F)cc3)C(=O)N2Cc2ccc3c(c2)OCO3)cc1` (stereo not drawn) is inactive: 111%; for `COCCCNc1ncnc2c1cnn2-c1ccc(F)cc1` it is inactive: 82%; for `CCc1ccc(NC(=O)N2CC(C)Oc3ccc(C)cc32)cc1` (stereo not drawn) it is inactive: 110%.
Next, `CNC(=S)N(Cc1ccco1)Cc1cc2cc(C)ccc2n2nnnc12`: inactive: 115%; `CC(C)(C)OC(=O)N1CCC(c2c(C(=O)NCCN3CCC(Cc4ccccc4)CC3)cnn2-c2ccccc2)CC1`: inactive: 74%.
Next, `CN1C(=O)c2ccc(NC3=NS(=O)(=O)c4ccccc43)cc2C1=O`: inactive: 117%.
For `COc1cc2ccccc2cc1C(=O)Nc1ccc2oc(-c3cccc(Cl)c3Cl)nc2c1`, the survival was inactive: 71%.
The figure for `CS(=O)(=O)N(CC(=O)N1CCCC1)c1ccc2c(c1)OCO2` is inactive: 95%.
Next, `COc1ccc(-n2cc(-c3ccccc3)nc2SCC(=O)Nc2ccccc2)cc1Cl`: inactive: 71%; `CCCn1c(NCc2ccccc2C)nc2ccccc21`: inactive: 95%; `O=C(CCn1[nH]c(=O)c2ccccc2c1=O)OC1CCCCC1`: inactive: 100%.
Next, `O=c1[nH]nc2c3c(cccc13)-c1ccccc1-2`: inactive: 104%; `CCc1ccc(S(=O)(=O)c2nnn3c2nc(N2CCCC2)c2sccc23)cc1`: inactive: 111%; `COc1ccc(-c2cc(C(F)(F)F)n3nc(C(=O)Nc4cccc(Cl)c4C)cc3n2)cc1`: inactive: 79%.
In the case of `CCOC(=O)c1ccc(NC(=O)Cn2cnc(S(=O)(=O)N3CCCC3)c2)cc1`, the survival was inactive: 67%.
The figure for `COc1ccc(-n2nc3c(N4CCCC(C(=O)NCCc5ccc(C)cc5)C4)nnc(C)c3c2C)cc1` (stereo not drawn) is inactive: 68%; for `Cc1ccccc1C1C=C(c2ccc(Cl)cc2)Nc2nnnn21` (stereo not drawn) it is inactive: 84%.
The figure for `Cc1nn(-c2ccc(N3CCCCC3)nn2)c(C)c1CCC(=O)NCc1ccccc1F` is inactive: 91%; for `CN1C(=O)Cc2cc(S(=O)(=O)CCC(=O)N3CCN(c4ccccc4F)CC3)ccc21` it is inactive: 117%.
As to `CCSc1ncc(Cl)c(C(=O)Nc2c(C(=O)Nc3ccc(Cl)cc3)oc3ccccc23)n1`, the survival was inactive: 115%.
Next, `O=C(c1ccc2c(c1)N(Cc1ccccc1)C(=O)c1ccccc1S2(=O)=O)N1CCN(c2ccccn2)CC1`: inactive: 82%.
Next, `CCOc1ccc(OCC)c(NC(=O)CCc2c(C)nc3c(c2C)c(=O)n(C)c(=O)n3C)c1`: inactive: 70%; `CCOc1ccccc1CNC(=O)c1cc(-c2ccc(OC)cc2)nc2ccc(C(C)C)cc12`: inactive: 65%.
Turning to `COc1cc(C2c3c(oc4ccccc4c3=O)C(=O)N2c2nnc(C(C)C)s2)cc(OC)c1OC` (stereo not drawn), the survival is inactive: 67%.
For `CCOC(=O)c1cccc(NS(=O)(=O)c2cn(C)c(C)n2)c1`, the survival was inactive: 73%.
The figure for `COc1ccc(CNC(=O)c2ccc3c(c2)nc2n3CCCCC2)c(OC)c1` is inactive: 82%; for `COC(=O)c1ccccc1NC(=O)Cn1c(=O)n(-c2ccc(Cl)cc2)c(=O)c2c(C)c(C)sc21` it is inactive: 76%; for `COc1ccc(/C=C/c2noc(-c3ccccc3O)n2)cc1OC` it is inactive: 136%.
Turning to `Cc1ccc(Cn2ccn(Cc3ccccc3C)c(=O)c2=O)cc1`, the survival is inactive: 91%.
For the compound `COc1ccc(C(=O)N2CCc3cc(OC)c(OC)cc3C2COc2ccc3c(C)cc(=O)oc3c2)c(OC)c1` (stereo not drawn), the survival is inactive: 73%.
The figure for `COc1cccc(-c2cc(C(=O)Nc3ccc(C)cc3)[nH]n2)c1` is inactive: 66%; for `Cc1ccc(CN2CCN(CC(=O)NCc3ccccc3Cl)C2=O)cc1` it is inactive: 80%.
The figure for `Cc1cc(C)cc(-n2nnc(-c3nc(-c4ccccc4F)no3)c2C)c1` is inactive: 71%; for `COc1cc(NS(=O)(=O)c2ccc3c(c2)CCCN3C(C)=O)cc(OC)c1OC` it is inactive: 70%; for `Cc1cc(C)n(-c2nc3ccccc3nc2Nc2cc(C(=O)O)ccc2C)n1` it is inactive: 68%.
Next, `CCOc1ccccc1NC(=O)CN1C(=O)C2(SCC(=O)N2c2cccc(F)c2)c2ccccc21` (stereo not drawn): inactive: 97%; `Cc1c(Cl)cccc1NC(=O)CCn1nc(C)c2c(C)n(-c3ccccc3)nc2c1=O`: inactive: 83%.
Consider `O=C(Nc1ccc(F)c(Cl)c1)c1cc(S(=O)(=O)N2CCCc3ccccc32)ccc1F`, for which the survival was inactive: 120%.
In the case of `COc1ccc(S(=O)(=O)N(CC(=O)NCc2ccc(C)cc2)c2ccc(Cl)cc2)cc1`, the survival is inactive: 128%.
Turning to `Cc1ccc(NC(=O)C(=O)NCC(c2cccnc2)N2CCc3ccccc32)cc1Cl` (stereo not drawn), the survival was inactive: 96%.
Next, `CCOc1ccc(C(=O)N2CCCCC2CCN2CCOCC2)cc1` (stereo not drawn): inactive: 88%; `COc1ccc(NC(=O)c2sc3nc(C)c(C(=O)Nc4ccc(Cl)cc4)c(-c4ccc(Br)cc4)c3c2N)cc1`: inactive: 75%; `CCOc1ccccc1NC(=O)NCCn1c(=O)oc2ccc(C)cc21`: inactive: 79%.
`COc1ccc(-c2nc(-c3ccccc3)c(-c3ccc(O)cc3)[nH]2)cc1`: the survival is active: 3%.
In the case of `COc1ccccc1CNS(=O)(=O)c1cc2c3c(c1)CCN3C(=O)CC2`, the survival is inactive: 73%.
Next, `COC(=O)c1ccccc1NC(=O)Cn1nnc2sc(-c3ccccc3)cc2c1=O`: inactive: 85%; `CCc1ccc(-c2nn(CC(=O)NC3CCCC3)c3c2cnc2ccc(F)cc23)cc1`: inactive: 79%.
Turning to `COc1ccccc1C(=O)NCCn1cc(SCc2ccccc2Cl)c2ccccc21`, the survival is inactive: 28%.
The figure for `COc1ccccc1C(=O)Nc1nc(-c2ccccc2)ns1` is inactive: 57%; for `CC1=CC(C)(C)Nc2ccc(OC(=O)c3ccco3)cc21` it is inactive: 125%; for `C=Cn1cc[n+](CC(=O)c2ccc(C)cc2)c1` it is inactive: 95%.
Next, `COc1ccc(Cn2c(C(=O)O)c(CNC3CCCCCC3)c3ccc(OC)cc32)cc1`: inactive: 120%; `O=C(/C=C/c1ccc(F)cc1)Nc1nc2n(n1)C(c1ccc(Cl)cc1)C=C(c1ccccc1)N2` (stereo not drawn): inactive: 43%.
The figure for `Nc1ncnc2sc3c(c12)CCCC3` is inactive: 109%; for `COc1ccc(OC)c(CNC(=O)CCn2c(=O)c3cccn3c3ccc(F)cc32)c1` it is inactive: 81%.
As to `Cc1cc(C)c2[nH]c(=O)c(CN(Cc3ccco3)C(=S)NCCCN3CCOCC3)cc2c1`, the survival was inactive: 98%.
The figure for `Cc1ccc2sc(N3CCN(C(=O)CCS(=O)(=O)c4ccc(F)cc4)CC3)nc2c1C` is inactive: 82%; for `COc1ccc(-n2ncc3c(NCCC4=CCCCC4)ncnc32)cc1` it is inactive: 83%.
Next, `Cc1noc(/C=C/c2ccco2)c1S(=O)(=O)N1CCC(C(=O)Nc2ccc(F)c(Cl)c2)CC1`: inactive: 120%; `CCC1=Nc2cc(C(=O)NC3CCCC3)ccc2Sc2ccc(Br)cc21`: inactive: 69%; `Cc1ccccc1-c1nc(CS(=O)(=O)CC(=O)NCc2cccc(Cl)c2)c(C)o1`: inactive: 117%.
The figure for `O=C1c2ccccc2-c2nc3ccccc3c(=O)n21` is inactive: 108%; for `Cc1ccc(S(=O)(=O)N2CCCC(NC(=O)N3CCN(c4ccccc4)CC3)C2)cc1` (stereo not drawn) it is inactive: 115%; for `C=Cc1ccc(CN2C(=O)N(c3cccc(Cl)c3)S(=O)(=O)c3ccccc32)cc1` it is inactive: 57%.
Turning to `Cc1ccc2c(=O)c(C(=O)c3cccc(Cl)c3)cn(CC(=O)NCc3ccc(F)cc3)c2n1`, the survival is inactive: 79%.
The figure for `COc1ccc(C(=O)n2nc(-c3ccco3)nc2NCc2cccs2)cc1` is inactive: 93%; for `COc1cccc(CN2CCc3nc(SCC(=O)Nc4ccccc4)[nH]c(=O)c3C2)c1` it is inactive: 83%.
The figure for `COc1ccc(C)cc1Nc1c2c(nc3nc(-c4cccs4)nn13)CCCC2` is inactive: 63%; for `Cc1cc(C)nc(N2CCC(C(=O)Nc3nnc(C(C)C)s3)CC2)n1` it is inactive: 107%.
Next, `O=C(NCc1cccc(Cl)c1)C(=O)Nc1ccc2nc3n(c(=O)c2c1)CCCCC3`: inactive: 118%; `CCCCN1CCCc2cc(CN(CCCN3CCOCC3)C(=O)Nc3ccc(OCC)cc3)ccc21`: inactive: 80%; `O=C(NCc1ccco1)c1ccc(COCC(F)(F)C(F)F)cc1`: inactive: 98%.
As to `COc1cc(Nc2nc3ccccc3c3nnc(C)n23)cc(OC)c1`, the survival was inactive: 32%.
Next, `CCN(CC)S(=O)(=O)c1ccc2c(c1)N(CC(=O)N1CCN(c3ccccc3F)CC1)C(=O)CO2`: inactive: 74%.
The figure for `CCOC(=O)c1ccc(Nc2ncnc3c2cnn3-c2cccc(Cl)c2)cc1` is inactive: 78%.

These data come from PubChem BioAssay AID463173 (ICCB-Longwood Screening Facility, Harvard Medical School, 2010).
